Our source for the displacement values is PubChem BioAssay AID1240 (Sanford-Burnham Center for Chemical Genomics, 2008).

The structures appear in SMILES notation. Where “and” joins values, the source holds several entries; their conditions need not be identical. Equal entries are not always repeated. About 800 (1.6%) of roughly 50,000 compounds showed an effect of 50% or more. Some of the results follow.

This test concerns the target Bcl-2-like protein 10 (Homo sapiens) (UniProt Q9HD36). Description: TR3 peptide-Bcl-B binding displacers, biochemical primary FP assay, phenotype converters (AID 1240).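 Also: 0% = Bcl-B with tracer peptide and DMSO and 100% = tracer peptide lacking Bcl-B.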 The settings on record: GST-Bcl-B / FITC-TR3 peptide fluorescence polarization; stronger effect = higher value; compound at 3.75 mg/L. A general note: In fluorescence polarisation assays a small probe gives low polarisation when free and higher when bound to something large.
Sequence of UniProt Q9HD36 (Q9HD36 whole entry, looked up): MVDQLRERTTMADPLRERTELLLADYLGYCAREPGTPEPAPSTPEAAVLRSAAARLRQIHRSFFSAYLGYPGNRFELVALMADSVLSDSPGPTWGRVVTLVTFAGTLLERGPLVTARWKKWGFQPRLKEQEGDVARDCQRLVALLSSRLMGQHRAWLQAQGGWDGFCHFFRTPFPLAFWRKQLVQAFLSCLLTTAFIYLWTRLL
For `C=CCc1cccc(C2Nc3ccccc3C(=O)N2O)c1O` (stereo not drawn), the displacement was found to be 1.7%.

For `CCOC(=O)c1cc2cc(Cl)ccc2oc1=O`, the displacement was 3.2%.

Turning to `O=C(O)C1C2CC/C=C\CC/C=C/CCC21` (stereo not drawn), the displacement was -14%.

With `CC1=C(C#N)c2nc(N)c(C#N)c(C)c2/C1=C/c1ccc(-c2cccc(C(=O)O)c2)o1`, the displacement was 18.7%.

Turning to `CC(=O)Oc1ccccc1-c1nc(C)nn1C(C)=O`, the displacement is -1.8%.

Regarding `CS(=O)(=O)N(CC(=O)Nc1ccc(Oc2ccccc2)cc1)c1ccc(Br)cc1`, the displacement came to 12.4%.

Regarding `C#CCOc1ccc(/C=C2\C(=O)NC(=O)N(c3ccc(Cl)cc3)C2=O)cc1OC`, the displacement is -18.9%.

As to `COc1ccc(OCCSc2nnnn2-c2ccccc2)cc1`, the displacement is -4.2%.

For `COc1ccc(NC(=O)C(=O)NCc2ccc(C)cc2)cc1Cl`, the displacement stood at 12.1%.

Regarding `O=C(Nc1cccc2ccccc12)c1cc(I)ccc1Cl`, the displacement amounted to 0.4%.

Consider `CCN(CC)CC#CC(O)(c1ccccc1)c1ccccc1`, for which the displacement was -5%.

`COc1cc(C2SCC(=O)N2c2c(C)n(C)n(-c3ccccc3)c2=O)ccc1O` (stereo not drawn): the displacement was 17.8%.

On to `N/C(=N/S(=O)(=O)c1ccc(Br)cc1)c1ccccc1`, for which the displacement came to 8.5%.

Turning to `CC(=O)N=c1cccc(NC(C)=O)n1O`, the displacement came out at 5.8%.

For `O=C(ON1C(=O)CCC1=O)c1cccnc1`, the displacement worked out at 2.4%.

Regarding `COc1cc(/C=N/N=C2c3ccccc3-c3ccccc32)cc(OC)c1OC`, the displacement came to 9.2%.

As for `Cn1c2ccccc2c2nnc(SCC(=O)NCc3ccco3)nc21`, the displacement is 14.6%.

On to `O=C(Nc1ccc(F)c([N+](=O)[O-])c1)c1ccc(Br)o1`, for which the displacement amounted to 13%.

For `COc1ccc(OC)c(C2/C(=C(\O)c3ccc(Br)cc3)C(=O)C(=O)N2c2ccccc2)c1` (stereo not drawn), the displacement is -5.4%.

As for `COc1ccc(NC(=O)COc2ccc3ccccc3c2)c(OC)c1`, the displacement was -1.3%.

With `COc1cc(/C=C2\C(=O)NC(=O)N(c3ccc(Cl)cc3)C2=O)cc(Cl)c1OC`, the displacement is -2.2%.

In the case of `CCC(C)NC(=O)/C(=C\c1ccc(OC(C)=O)c(OC)c1)NC(C)=O` (stereo not drawn), the displacement amounted to 0.8%.

Regarding `O=S(=O)(/N=C(/Nc1cccc(O)c1)c1ccccc1)c1ccc(Cl)cc1`, the displacement was found to be 12.5%.

As for `COc1cc(/C=C2\SC(NC(C)=O)=NC2=O)cc(Br)c1OC`, the displacement turned out to be 11.8%.

`COc1cc(C2SCC(=O)N2CCN2CCCCC2)cc(OC)c1OC` (stereo not drawn): the displacement was -4.7%.

For the compound `COc1ccccc1CNC(=O)CC(c1ccccc1)c1ccccc1`, the displacement is 4.4%.

For `Cc1c(Br)c(=O)oc2cc(O)ccc12`, the displacement was -10.2%.

As to `CC(C)(O)C#Cc1ccc(C(=O)N2CCN(C(=O)c3ccc(C#CC(C)(C)O)cc3)CC2)cc1`, the displacement is -10.1%.

As for `CC(C)(C)NCC(O)COC1CCC(C(C)(C)C)CC1` (stereo not drawn), the displacement was 6.6%.

`COc1ccccc1/C=c1/sc2nc3c(Br)c(C)c(C)cc3n2c1=O`: the displacement stood at 12.9%.

`Cc1cc(Cl)ccc1OCCCC(=O)Nc1nc2ccc(S(C)(=O)=O)cc2s1`: the displacement is 10.2%.

Regarding `O=C(NCCCN1CCOCC1)/C(=C/c1ccc(-c2cccc(Cl)c2)o1)NC(=O)c1ccccc1`, the displacement turned out to be 8.9%.

Consider `COc1cc(-c2ncnn2-c2sc3c(c2C#N)CCCC3)ccc1O`, for which the displacement was determined as 4.9%.

As for `COc1ccc(/C=N/N2CCN(c3ccccc3)CC2)cc1Br`, the displacement is 7.1%.

In the case of `COc1ccc(C(NC(=O)c2ccccc2F)c2ccc(OC)cc2)cc1`, the displacement is -50.5%.

Turning to `COc1ccc(C2Nc3ccccc3C(=O)N2Cc2ccccc2)cc1COc1ccccc1F` (stereo not drawn), the displacement amounted to 1.2%.

With `CCCCn1c(/N=C/c2ccc(OC)c3cccc(OC)c23)nc2ccccc21`, the displacement amounted to 12.7%.

Regarding `Cc1[nH]c2ccccc2c1/C=C/c1nc2ccccc2c(=O)n1-c1ccccc1[N+](=O)[O-]`, the displacement came to 8.7%.

As for `CC(=O)CC1C(C#N)=C(N(C)C)N(c2ccc([N+](=O)[O-])cc2)c2c1n(C)c1ccccc21` (stereo not drawn), the displacement worked out at 30.5%.

As for `COc1ccc(Cl)cc1C(=O)Nc1ccc(Cl)c(-c2nc3ncccc3o2)c1`, the displacement is -3.3%.

As for `Cc1cccc(C)c1NC(=O)COc1ccc(Br)cc1`, the displacement was found to be 5.2%.

For the compound `CC1=C(C(=O)OC(C)C)C(c2ccc(Br)cc2)C2=C(CC(c3ccc(Cl)cc3)CC2=O)N1` (stereo not drawn), the displacement was -12.9%.

As to `CCCc1ccc(OCC(=O)NNC(=O)C2COc3ccccc3O2)cc1` (stereo not drawn), the displacement was -3.3%.

For `O=S(=O)(Nc1ccc(Nc2ccccc2)cc1)c1ccc2ccccc2c1`, the displacement stood at 11.8%.

Consider `COc1cccc(C(=O)N2CCN(Cc3cc(OC)c(OC)cc3OC)CC2)c1`, for which the displacement turned out to be 10.5%.

Turning to `COC(=O)c1ccc(-c2nc3sc4c(c3c(=O)[nH]2)CCCC4)cc1`, the displacement is -17.7%.

On to `O=C(O)CN1C(=O)S/C(=C/C(Cl)=C/c2ccc([N+](=O)[O-])cc2)C1=O`, for which the displacement was 6.8%.

Consider `CCN1C(=O)/C(=C\c2ccccc2O)C(C(=O)OC)=C1C`, for which the displacement worked out at 5.6%.

For `O=C(Nc1cccc(I)c1)c1ccc2c(c1)C(=O)N(CC1CCCO1)C2=O` (stereo not drawn), the displacement turned out to be 15.1%.

`COc1ccc(OC)c(C2/C(=C(\O)c3ccc(F)cc3)C(=O)C(=O)N2CCCCCC(=O)O)c1` (stereo not drawn): the displacement is -14.6%.

In the case of `Cc1onc(-c2ccccc2Cl)c1C(=O)Nc1ccccc1C(N)=O`, the displacement was -5.2%.

Consider `O=C(NCc1ccco1)c1ccccc1[N+](=O)[O-]`, for which the displacement was -8.7%.

In the case of `O=C1c2ccccc2C(=O)N1/N=C/c1ccccc1O`, the displacement was -5.4%.

As for `C=CCOc1c(I)cc(/C=C2/C(=O)NC(=O)N(c3cccc(C)c3)C2=O)cc1OC`, the displacement was found to be 12.1%.

For `O=C(NC12CCC3CC(CC(C3)C1)C2)c1ccc(Br)cc1`, the displacement amounted to 1%.

Consider `Brc1ccc(CSc2ncn[nH]2)cc1`, for which the displacement was 1.1% and -20.1%.

On to `O=S1(=O)CC(S(=O)(=O)c2ccccc2)C(S(=O)(=O)c2ccccc2)C1` (stereo not drawn), for which the displacement turned out to be 7.4%.

On to `O=C1c2cc(S(=O)(=O)N(CCO)CCO)ccc2-c2ccc(S(=O)(=O)N(CCO)CCO)cc21`, for which the displacement was determined as 2.8%.

For `N#C/C(=C/c1ccc(Cl)cc1)C(=O)Nc1cccc(Br)c1`, the displacement was -9.8%.

Take `O=P(c1ccccc1)(c1ccccc1)C1CCOCC1`: the displacement came out at 11.4%.

As to `O=C1CC(Cc2ccc(Br)cc2)C(=O)N1c1ccccc1` (stereo not drawn), the displacement came to 12.9%.

In the case of `CC(=O)N(CC(C)(C)CC=C(C)C)C1CCCCC1`, the displacement was -39.9%.

Turning to `Cc1nn(-c2ccccc2)c(C)c1CC(=O)N(c1ccccc1)c1ccccc1`, the displacement was 17.9%.

For `CC(C)(C)/C(O)=C/c1nc2cc([N+](=O)[O-])ccc2[nH]c1=O`, the displacement was determined as 0.3%.

As for `COc1ccc(C(=O)N/C(=C\c2ccc(-c3cccc([N+](=O)[O-])c3)o2)C(=O)NCc2ccco2)cc1`, the displacement amounted to 9.9%.

`COc1ccc(C)cc1NC(=O)c1cc(C(=O)Nc2cc(C)ccc2OC)n(C)n1`: the displacement was 7.3%.

In the case of `O=C(c1c(Cl)cccc1Cl)N1CCN(c2ccc([N+](=O)[O-])cc2)CC1`, the displacement was 16.3%.

`COc1ccc(C2CC(C(F)(F)F)n3ncc(C(=O)Nc4ccccc4SC)c3N2)cc1` (stereo not drawn): the displacement is 2.7%.
